Measurements from a collection of fitness landscapes (doi:10.1126/science.1257360).
The list shows a part of the results.

B1: PhoQ; a variant is named by its letters at X, in order, P23837 (parent)
chain: MKKLLRLFFPLSLRVRFLLATAAVVLVLSLAYGMVALIGYSVSFDKTTFRLLRGESNLFYTLAKWENNKLHVELPENIDKQSPTMTLIYDENGQLLWAQRDVPWLMKMIQPDWLKSNGFHEIEADVNDTSLLLSGDHSIQQQLQEVREDDDDAEMTHSVAVNVYPATSRMPKLTIVVVDTIPVELKSSYMVWSWFIYVLSANLLLVIPLLWVAAWWSLRPIEALAKEVRELEEHNRELLNPATTRELTSLVRNLNRLLKSERERYDKYRTTLTDLTHSLKTPLXXLQXXLRSLRSEKMSVSDAEPVMLEQISRISQQIGYYLHRASMRGGTLLSRELHPVAPLLDNLTSALNKVYQRKGVNISLDISPEISFVGEQNDFVEVMGNVLDNACKYCLEFVEISARQTDEHLYIVVEDDGPGIPLSKREVIFDRGQRVDTLRPGQGVGLAVAREITEQYEGKIVAGESMLGGARMEVIFGRQHSAPKDE

Variants of: B1
Assay: enrichment ratio after two sorts for PhoP signalling (ratio (wild type AVST 3.29)); higher = more functional
Settings: with PhoP (E. coli)

Variant	enrichment ratio
ATTP	≤ 0.25
RWVN	1.59
IATN	≤ 0.25
EELM	≤ 0.25
QCMG	≤ 0.25
ELEK	≤ 0.25
AGPR	≤ 0.25
ISCC	≤ 0.25
QYDR	≤ 0.25
WNYF	≤ 0.25
FMID	≤ 0.25
IDDN	≤ 0.25
MVNR	≤ 0.25
IHRI	≤ 0.25
QWGE	≤ 0.25
FTEM	≤ 0.25
SSAT	8.03
SSKW	≤ 0.25
KNRE	≤ 0.25
PKLY	≤ 0.25
ARRL	≤ 0.25
LRVD	≤ 0.25
ACAR	0.901
LPVV	≤ 0.25
FFVF	≤ 0.25

Variant	enrichment ratio
FDPE	≤ 0.25
IKNK	≤ 0.25
QDKN	≤ 0.25
IQTW	≤ 0.25
GIGM	36.1
GNTF	≤ 0.25
LEPH	≤ 0.25
MMCL	4.1
TPQL	0.944
HKNR	≤ 0.25
KANC	≤ 0.25
PWRG	≤ 0.25
LLKQ	≤ 0.25
PNSM	≤ 0.25
HRAW	≤ 0.25
IVYQ	≤ 0.25
RYNS	≤ 0.25
WYRS	≤ 0.25
REWL	1.09
CYSF	≤ 0.25
VDRQ	≤ 0.25
KEFM	≤ 0.25
SIKA	≤ 0.25
KDTK	≤ 0.25
GMIC	≤ 0.25

Variant	enrichment ratio
GDMP	≤ 0.25
HQNA	≤ 0.25
RSAI	≤ 0.25
GPSE	≤ 0.25
TFNR	≤ 0.25
IGPM	≤ 0.25
TKPK	≤ 0.25
GENM	≤ 0.25
IDCV	≤ 0.25
IFKR	≤ 0.25
RLHP	≤ 0.25
PTGV	≤ 0.25
IYCP	≤ 0.25
VHKN	≤ 0.25
DTIM	≤ 0.25
SVDI	≤ 0.25
NMDV	≤ 0.25
QQNQ	≤ 0.25
TRMC	2.53
MPMA	≤ 0.25
NWAP	≤ 0.25
RRLN	≤ 0.25
NLAA	≤ 0.25
NYNL	≤ 0.25
HIRI	≤ 0.25

Variant	enrichment ratio
DLEE	≤ 0.25
QHSM	2.52
LRIF	≤ 0.25
GQMC	≤ 0.25
KDGP	≤ 0.25
GIPA	≤ 0.25
WVMI	≤ 0.25
YIQP	≤ 0.25
PDDN	≤ 0.25
APFA	≤ 0.25
DSPE	≤ 0.25
HLMV	≤ 0.25
LLKL	≤ 0.25
IPCQ	≤ 0.25
NDFY	≤ 0.25
RIWF	≤ 0.25
MGPH	≤ 0.25
QRGH	≤ 0.25
TGYH	1.03
PCSL	≤ 0.25
VSSY	≤ 0.25
PYLM	≤ 0.25
GNGQ	≤ 0.25
PLMC	≤ 0.25
GEPV	≤ 0.25

Variant	enrichment ratio
FFKG	≤ 0.25
QVFC	≤ 0.25
EGAH	≤ 0.25
DCGP	≤ 0.25
EYFK	≤ 0.25
GSKY	≤ 0.25
KPFC	≤ 0.25
EANY	≤ 0.25
DQEI	≤ 0.25
REKH	≤ 0.25
VSNQ	≤ 0.25
DKTT	≤ 0.25
KLPK	≤ 0.25
TEAN	29.6
ILLL	≤ 0.25
EPGL	≤ 0.25
KAGC	≤ 0.25
SQQG	6.66
EHPF	≤ 0.25
PTTW	≤ 0.25
DSHV	≤ 0.25
HNPQ	≤ 0.25
VDVF	≤ 0.25
YPKE	≤ 0.25
FRIN	≤ 0.25

Variant	enrichment ratio
ISLA	≤ 0.25
PLYK	≤ 0.25
SSHK	≤ 0.25
YPRV	≤ 0.25
LYYG	≤ 0.25
HYHY	≤ 0.25
PNEH	≤ 0.25
NIKD	≤ 0.25
TFSV	6.01
QIGA	≤ 0.25
SECM	38.2
HWLE	≤ 0.25
IYRQ	≤ 0.25
HEMN	≤ 0.25
TTEA	≤ 0.25
KQTV	≤ 0.25
KSMW	≤ 0.25
QCTW	≤ 0.25
QADN	≤ 0.25
YMRR	≤ 0.25
IKMK	≤ 0.25
IDTH	≤ 0.25
PKRY	≤ 0.25
VRVH	≤ 0.25
LGCG	≤ 0.25

Variant	enrichment ratio
RAWG	≤ 0.25
KYHL	≤ 0.25
EYAE	≤ 0.25
GSTE	≤ 0.25
QLPK	≤ 0.25
AELQ	7.37
WKSA	≤ 0.25
YMPM	≤ 0.25
QYTT	≤ 0.25
TRWS	≤ 0.25
SDGK	≤ 0.25
WKFW	≤ 0.25
TTLG	10.6
WKFN	≤ 0.25
CLTF	7.98
WDSA	≤ 0.25
EKPW	≤ 0.25
MDLF	≤ 0.25
HDIR	≤ 0.25
GMDC	≤ 0.25
DPTD	≤ 0.25
RYRW	≤ 0.25
YPDT	≤ 0.25
LPQG	≤ 0.25
DLSA	≤ 0.25

Variant	enrichment ratio
LTLL	3.06
IWPR	≤ 0.25
TTMS	26.8
QGAY	≤ 0.25
SKIT	2.38
GGKQ	≤ 0.25
PWDL	≤ 0.25
RGWK	≤ 0.25
TCTW	10.8
LGCM	≤ 0.25
KADF	≤ 0.25
AQQN	≤ 0.25
QVRS	≤ 0.25
WFDM	≤ 0.25
WTKD	≤ 0.25
YKMD	≤ 0.25
DFSA	≤ 0.25
QDKI	≤ 0.25
HTGR	≤ 0.25
SRPA	≤ 0.25
